PubChem BioAssay (NCATS)
Values joined by “and” are separate entries in the source; they are usually repeats but may differ in a detail not shown here. Identical values can stand only once. Inconclusive means that the source gave no clear call. Such entries were picked first, then a sample of the others. A potency beside an inconclusive call is a rough fit, not a confirmed value. Active and inactive are the calls of the source. The call rests on the fitted dose curve; in most records, active means well fitted cell-killing curve with a large enough effect; inconclusive means small, poorly fitted or top-dose-only effect, or effect the other way; inactive means no such curve, though single readings can be large or run the other way.

Experiment: Viability qHTS for spleen associated tyrosine kinase inhibitor (SYKi) naive MV4-11 cells (AID 1963823); further: nearly all actives have a fitted effect of over 40% in size
Settings: MV4-11 AML viability, CellTiter-Glo luminescence, 72 h; viability (% of control): at 45 µM (top of the series)
Summary of the method: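 Luminescence from CellTiter-Glo, developed 10 min at room temperature, gave viability of MV4-11 cells never exposed to SYK inhibitor. Cells (500/well) had been incubated with compounds for 72 hr under standard culture conditions.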
Potency means the concentration at half of the fitted maximal effect; tags describe the fitted curve by direction and shape.

Row | Structure (SMILES) | Potency | viability (% of control)
1 | Cc1nc2ccc(-n3ncc(C(=O)c4cc5ccccc5[nH]4)c3N)cc2[nH]1 | active: 2.59 µM and inconclusive: 3.32 µM [cytotoxic, full curve] | –
2 | FC(F)(F)C(F)(F)C(F)(F)C(F)(F)C(F)(F)C(F)(F)C(F)(F)C(F)(F)Br | – | inactive: 71%
3 | Cc1ccnc(NS(=O)(=O)c2ccc(N)cc2)n1 | inconclusive: 4.73 µM [cytotoxic, partial curve, poor fit] | –
4 | O=C1NC(=O)/C(=C\c2ccc(-c3ccc(F)cc3)o2)S1 | active: 14.8 µM | –
5 | C/C(=N\O)[C@@H](C)NCC(C)(C)CN[C@H](C)/C(C)=N/O | – | inactive: 82.6%
6 | C=CC(=O)Nc1ccc(F)c(-c2ncnc3[nH]cc(C(=O)OCC)c23)c1 | inconclusive: 16.6 µM [cytotoxic, partial curve] | –
7 | COc1ccccc1N1CCN(CCCNc2cc(=O)n(C)c(=O)n2C)CC1 | inactive and inconclusive: 18.4 µM [cytotoxic, single point] | –
8 | Cn1cc(-c2ccc3c(c2)CCN3C(=O)Cc2cccc(C(F)(F)F)c2)c2c(N)ncnc21 | inconclusive: 2.95 µM [cytotoxic, full curve] | –
9 | COc1ccc([C@@H]2Sc3ccccc3N(CCN(C)C)C(=O)[C@@H]2OC(C)=O)cc1 | inactive | –
10 | OC[C@H]1O[C@@H](n2cnc3c(=S)nc[nH]c32)[C@H](O)[C@@H]1O | inconclusive: 1.5 µM [cytotoxic, full curve] | –
11 | Cc1ncc(CSSCc2cnc(C)c(O)c2CO)c(CO)c1O | – | inactive: 71.2%
